Source: the BET-seq Pho4 binding data (Le et al. 2018)
The other results are listed elsewhere or left out. The energies were worked out here from pooled read counts, against the library average; single values are noisy.

molecular target: T1, Pho4 (S. cerevisiae) (UniProt P07270); assay: relative binding free energy (BET-seq); higher = weaker binding; settings: reference: library average
T1 sequence: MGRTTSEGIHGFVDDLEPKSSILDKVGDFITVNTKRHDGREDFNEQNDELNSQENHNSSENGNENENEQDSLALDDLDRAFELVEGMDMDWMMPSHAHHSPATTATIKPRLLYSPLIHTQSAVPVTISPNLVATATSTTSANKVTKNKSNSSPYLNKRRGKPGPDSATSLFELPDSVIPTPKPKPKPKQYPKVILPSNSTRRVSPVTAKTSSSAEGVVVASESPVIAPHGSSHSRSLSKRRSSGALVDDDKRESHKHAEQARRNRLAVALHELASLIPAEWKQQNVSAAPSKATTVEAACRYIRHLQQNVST

Sequence	relative binding free energy
AGGTTCACGTGCTATT	0.21 kcal/mol
GGCTGCACGTGGAAGT	0.2 kcal/mol
TCGGACACGTGTGTTT	0.04 kcal/mol
CTTATCACGTGTGTGT	-0.03 kcal/mol
GAATTCACGTGTAGAG	0.28 kcal/mol
GTCGTCACGTGTTAGT	0.08 kcal/mol
AGTTGCACGTGGGAAG	-0.03 kcal/mol
GTCATCACGTGTGGTG	0.22 kcal/mol
GTAGGCACGTGCGTGG	-0.12 kcal/mol
ACAGTCACGTGTAGTG	0.09 kcal/mol
TCGCTCACGTGTAGGG	0.13 kcal/mol
CATAACACGTGTTGGG	0.1 kcal/mol
AAAGTCACGTGGGTTA	-0.03 kcal/mol
ATGGTCACGTGAAAGG	0.28 kcal/mol
GGATTCACGTGGGGTT	0.27 kcal/mol
AGTTGCACGTGTAAAG	-0.02 kcal/mol
TGCCTCACGTGTTGGT	0.19 kcal/mol
ATTTTCACGTGAAGTC	0.4 kcal/mol
CTTGTCACGTGTCTTG	-0.02 kcal/mol
GTAGGCACGTGGGCCG	-0.14 kcal/mol
TTTACCACGTGTGGAG	-0.03 kcal/mol
TACTGCACGTGGGCGT	-0.04 kcal/mol
TAGAGCACGTGTTGAT	-0.18 kcal/mol
AATTGCACGTGCGTAG	-0.01 kcal/mol
AGGTTCACGTGATGTA	0.17 kcal/mol
ATCTGCACGTGAAGGG	0.18 kcal/mol

Sequence	relative binding free energy
GGTCTCACGTGGGATT	0.28 kcal/mol
TTACGCACGTGTGGGG	-0.06 kcal/mol
ATTCGCACGTGCGGGT	-0.11 kcal/mol
TGGATCACGTGGGAAA	0.1 kcal/mol
ATGCGCACGTGCTTGT	-0.08 kcal/mol
GGCTCCACGTGTGGTA	0.12 kcal/mol
GCGGTCACGTGTTAGT	0.11 kcal/mol
GATTTCACGTGTGACG	0.32 kcal/mol
TGTAACACGTGAGCGG	0.19 kcal/mol
TGAGGCACGTGGCTAA	-0.2 kcal/mol
GAAGTCACGTGATAGG	0.22 kcal/mol
TTAGGCACGTGGGTTG	-0.2 kcal/mol
ATAGGCACGTGCGATG	-0.06 kcal/mol
TTAATCACGTGTTATT	0.1 kcal/mol
ATTATCACGTGCTGGA	0.07 kcal/mol
TGTTGCACGTGTTGAA	0.09 kcal/mol
GTTTTCACGTGTTGGC	0.31 kcal/mol
TTGAGCACGTGTCTGG	-0.1 kcal/mol
GTTATCACGTGCGTCA	0.25 kcal/mol
CTTCTCACGTGAGTGG	0.41 kcal/mol
TACGTCACGTGGGTAG	-0.06 kcal/mol
GCTTTCACGTGTGGTG	0.37 kcal/mol
CGGTGCACGTGATTCG	0.01 kcal/mol
GTGTGCACGTGGCGCA	-0.08 kcal/mol
TAGGTCACGTGTAGAG	0.16 kcal/mol
ACGTTCACGTGAAGTG	0.42 kcal/mol

Sequence	relative binding free energy
GTTCTCACGTGGGGGA	0.14 kcal/mol
CTTGTCACGTGGAAGC	0.27 kcal/mol
AACGGCACGTGGGTAA	-0.03 kcal/mol
GATGGCACGTGTAGGA	0 kcal/mol
TGGGCCACGTGGGCGT	-0.34 kcal/mol
GTTGGCACGTGCGAAA	0.05 kcal/mol
GTGGTCACGTGATTAG	0.45 kcal/mol
AGGCTCACGTGGACGG	0.32 kcal/mol
TACGACACGTGTGGTG	0.04 kcal/mol
TAGGGCACGTGGACGT	-0.08 kcal/mol
ATTGGCACGTGATGTT	0.06 kcal/mol
GTTGTCACGTGAAGGC	0.32 kcal/mol
GATTACACGTGATTTG	0.34 kcal/mol
GTATCCACGTGTGGGT	0.05 kcal/mol
TTAGGCACGTGTTGAT	0.01 kcal/mol
CAGGACACGTGGCGGG	-0.04 kcal/mol
TAATCCACGTGGTTGG	-0.07 kcal/mol
TTCGTCACGTGCGGAT	0.06 kcal/mol
TATAGCACGTGAAGTT	0.07 kcal/mol
TGTGACACGTGGGCGC	-0.06 kcal/mol
TTATTCACGTGGGCGT	0.12 kcal/mol
ATGTGCACGTGTGATA	0.04 kcal/mol
ATTATCACGTGGGGAG	0.03 kcal/mol
TGCTCCACGTGGGGTT	-0.15 kcal/mol
TAATTCACGTGGATGT	0.31 kcal/mol
TAAAGCACGTGTAATG	0.08 kcal/mol

Sequence	relative binding free energy
CGTGGCACGTGTAGGC	-0.01 kcal/mol
GTTTGCACGTGAGAGT	0.32 kcal/mol
GTTGTCACGTGTTTCA	0.23 kcal/mol
CGTAGCACGTGCAGGG	-0.08 kcal/mol
GTTGACACGTGCTGAG	-0.01 kcal/mol
AAAGGCACGTGAATGT	0.09 kcal/mol
TGAGGCACGTGGCAGG	-0.18 kcal/mol
ATGTACACGTGGGCGT	0 kcal/mol
TGTTGCACGTGAGGCA	-0.05 kcal/mol
TGATCCACGTGGTTAA	0.07 kcal/mol
GGGGCCACGTGGGAAT	0.09 kcal/mol
GCTTACACGTGTTATA	0.29 kcal/mol
AGTATCACGTGTAGTC	0.2 kcal/mol
GGGTCCACGTGGGTGG	-0.18 kcal/mol
TTGTACACGTGAGTGA	0.27 kcal/mol
AAGGTCACGTGAATAG	0.34 kcal/mol
TGTGGCACGTGCGTAG	-0.09 kcal/mol
TGTTTCACGTGCGGAT	0.21 kcal/mol
TGTTGCACGTGGTAAC	-0.02 kcal/mol
CGTTGCACGTGTTTTC	0.16 kcal/mol
TTTTGCACGTGTGACT	0.17 kcal/mol
GGCAGCACGTGGGTAT	-0.12 kcal/mol
GCGGTCACGTGTGGGG	0.21 kcal/mol
TGTGGCACGTGCCTTG	-0.08 kcal/mol
ATGTTCACGTGATTGG	0.34 kcal/mol
TGTTGCACGTGAGAGT	0.23 kcal/mol

Sequence	relative binding free energy
GTGGACACGTGCTTGG	0.04 kcal/mol
TTAGGCACGTGGTTGT	-0.08 kcal/mol
TAGAGCACGTGGCAGT	-0.1 kcal/mol
GTCGTCACGTGTGATG	0.18 kcal/mol
GTGGACACGTGTAATT	0.07 kcal/mol
TCAGGCACGTGTCTTG	-0.09 kcal/mol
TATAGCACGTGGGGTT	-0.23 kcal/mol
CGATTCACGTGGTTTG	0.22 kcal/mol
ATGCGCACGTGTAGTT	0.04 kcal/mol
GTGGACACGTGAGCGT	0.14 kcal/mol
TTTCGCACGTGGGTAT	-0.18 kcal/mol
ATTGGCACGTGATGAC	0.04 kcal/mol
TGGGGCACGTGCTAGC	-0.21 kcal/mol
ATTCTCACGTGGTATT	0.13 kcal/mol
TTTGTCACGTGAGACT	0.26 kcal/mol
ACTAACACGTGTGGGT	-0.02 kcal/mol
TTAGTCACGTGTAATT	0.16 kcal/mol
GGTTTCACGTGAGGGC	0.51 kcal/mol
TTTGTCACGTGGTAAT	0.08 kcal/mol
AGCTGCACGTGTGGGC	-0.1 kcal/mol
TTGAGCACGTGATGGT	0.12 kcal/mol
TATTGCACGTGGATCT	0.01 kcal/mol
GGCAGCACGTGTGAGA	0.09 kcal/mol
TGTAGCACGTGTGTTA	-0.09 kcal/mol
CGAGGCACGTGGTCTG	-0.22 kcal/mol
GGTGTCACGTGAGAAA	0.31 kcal/mol

Sequence	relative binding free energy
TGCTGCACGTGTTAAG	0.08 kcal/mol
ATAAGCACGTGGAGGC	-0.01 kcal/mol
TTAGGCACGTGTTTCA	-0.23 kcal/mol
TGACGCACGTGTAATT	0.1 kcal/mol
ATTCACACGTGTAGTG	0.14 kcal/mol
CGGGGCACGTGGCGTT	-0.17 kcal/mol
TTGTGCACGTGACTTG	0.16 kcal/mol
GGGCTCACGTGGGCTG	0.23 kcal/mol
CACGGCACGTGGGTGT	-0.26 kcal/mol
ATTAACACGTGTAGTT	0.02 kcal/mol
CTTCTCACGTGGTATG	0.22 kcal/mol
CCGGACACGTGAGGTG	0.27 kcal/mol
CTATGCACGTGATATG	0.08 kcal/mol
CATGCCACGTGGTTTG	-0.05 kcal/mol
GGGAGCACGTGGTCAT	-0.12 kcal/mol
TGCTGCACGTGGGGTC	-0.16 kcal/mol
TTTTCCACGTGCGTTT	0.06 kcal/mol
GGTGTCACGTGAAGTC	0.37 kcal/mol
GGATGCACGTGTGACG	0.11 kcal/mol
GATTGCACGTGGCGAT	-0.05 kcal/mol
GCAAGCACGTGGGGGA	-0.27 kcal/mol
AGTTGCACGTGAGTTT	0.2 kcal/mol
ATACGCACGTGGTGGT	-0.19 kcal/mol
GGCTACACGTGTGATT	0.33 kcal/mol
AGGTGCACGTGGTAGT	-0.14 kcal/mol
CGGGGCACGTGGACGT	-0.05 kcal/mol

Sequence	relative binding free energy
CTTTTCACGTGTGTTA	0.18 kcal/mol
TTCATCACGTGGTGTG	0.04 kcal/mol
GGGGCCACGTGGTGAC	-0.12 kcal/mol
GGTGACACGTGGGTGA	-0.06 kcal/mol
TTTGGCACGTGGCCAG	-0.08 kcal/mol
GGAGGCACGTGGAGTG	-0.12 kcal/mol
AGGAGCACGTGTTGTT	-0.09 kcal/mol
TTTTACACGTGGTGGC	0.1 kcal/mol
GTTTCCACGTGTGAAT	0.22 kcal/mol
AGTTGCACGTGGTGAA	-0.04 kcal/mol
TTCGACACGTGGGAGG	0.09 kcal/mol
GGTAACACGTGATAGA	0.24 kcal/mol
GTGTACACGTGGATAT	-0.06 kcal/mol
TCAGTCACGTGGCGGG	0 kcal/mol
CGTAGCACGTGGAGTA	-0.18 kcal/mol
TAGGCCACGTGGAATG	0.02 kcal/mol
CGGTGCACGTGTGTGC	-0.05 kcal/mol
GGGAGCACGTGTCAGG	-0.2 kcal/mol
TTTTACACGTGTGAAT	0.08 kcal/mol
GGACGCACGTGGTGCG	-0.07 kcal/mol
TAGAACACGTGCGGGG	-0.13 kcal/mol
CGTTACACGTGATAGG	0.27 kcal/mol
ATAGTCACGTGGGCGT	-0.11 kcal/mol
AAGCGCACGTGTTGTA	0 kcal/mol
AGGTTCACGTGTTTGA	0.29 kcal/mol
GATTGCACGTGGGTGT	-0.15 kcal/mol

Sequence	relative binding free energy
GGTGACACGTGTACTT	0.19 kcal/mol
TATGTCACGTGTGAGA	0.13 kcal/mol
CAGTGCACGTGGGGGA	-0.12 kcal/mol
ACTTGCACGTGGGGCT	-0.17 kcal/mol
TGGGGCACGTGAAATG	0.11 kcal/mol
GGTGACACGTGGGCTA	-0.11 kcal/mol
GGTAACACGTGACGGT	0.15 kcal/mol
ATCCTCACGTGTGGGG	0.27 kcal/mol
GATGTCACGTGGAGTG	0.03 kcal/mol
GGTAACACGTGGTATT	-0.15 kcal/mol
GGAGTCACGTGAGTTA	0.27 kcal/mol
AGGGACACGTGAATAG	0.24 kcal/mol
TGGGTCACGTGATGAT	0.35 kcal/mol
AATGTCACGTGGAGGG	0.08 kcal/mol
ATGTACACGTGAGGGT	0.27 kcal/mol
GTTACCACGTGATGGG	0.03 kcal/mol
TAGGTCACGTGATACG	0.18 kcal/mol
CGTGTCACGTGTGGGA	0.09 kcal/mol
TACTACACGTGTTTAG	0.09 kcal/mol
AGATTCACGTGCAGTT	0.26 kcal/mol
GGTGTCACGTGGTGTC	0.03 kcal/mol
AAGAGCACGTGGTGAT	-0.03 kcal/mol
TATTGCACGTGATGGG	0.05 kcal/mol
ATAAGCACGTGTGTGA	-0.05 kcal/mol
GATTGCACGTGCGGTG	0.06 kcal/mol
GGGGCCACGTGGAATT	0.06 kcal/mol

Sequence	relative binding free energy
TGTTGCACGTGTGATC	0.11 kcal/mol
ATTAGCACGTGGATTA	0.1 kcal/mol
TGGTTCACGTGGGTGG	0.18 kcal/mol
AGTCTCACGTGGAAGT	0.27 kcal/mol
GTGTTCACGTGGAGTT	0.19 kcal/mol
TCTTACACGTGGGGAT	0.16 kcal/mol
TGGGACACGTGGATAT	0.07 kcal/mol
TGTATCACGTGACAGG	0.26 kcal/mol
AGTAACACGTGTGGTA	-0.06 kcal/mol
TGCCGCACGTGGGGCG	-0.34 kcal/mol
GTTGTCACGTGGCCGA	0.13 kcal/mol
GAATTCACGTGCGTGT	0.18 kcal/mol
GCGTTCACGTGCTTGG	0.22 kcal/mol
GTGTGCACGTGTTTTC	-0.1 kcal/mol
TAAGTCACGTGTGTGC	0.11 kcal/mol
GTTTTCACGTGGTTGG	0.27 kcal/mol
TGTAGCACGTGGAACG	0.11 kcal/mol
GAGATCACGTGGGAGA	0.13 kcal/mol
CTTATCACGTGGATTG	-0.01 kcal/mol
GGCGGCACGTGGCGAG	-0.19 kcal/mol
CCGGGCACGTGTGTGC	0.02 kcal/mol
AGTCTCACGTGCGGGG	0.16 kcal/mol
